Sequences with one replicate were seen in a single cluster, so their values are uncertain.

The subject of this series is ATP. Nature of the series: switch fluorescence ratio, 500 uM ATP over buffer (Cy3 cluster intensity, sum of 5 cycles each) (fold (ratio)); higher = stronger signal-on switching upon ATP binding; sequences stand for … in TCGTCGGCAGCGTCAGATGTGTATAAGAGACAGTTTTTTTTTTTTTTTTTTTTTTTTT…TC. As to conditions: aptamer strand: ATP DNA aptamer (quencher-CACCTGGGGGAGTATTGCGGAGGAAGG + anchor), 100 nM annealed; ATP concentration: 500 uM; one replicate. Put shortly:
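Exposure to 500 uM ATP lasted 15 min at 22 °C before imaging, and a selection-buffer image was taken beforehand, for Cy3-labelled switching-strand clusters on a modified Illumina MiSeq flow-cell annealed to 100 nM quencher-labelled ATP aptamer. Five buffer/ATP cycles were run with NaOH stripping and re-annealing between them. The fluorescence ratio per cluster is summed target-cycle over summed buffer-cycle Cy3 intensity, averaged per switch-domain sequence. Clusters outside 100-1000 RFU were excluded.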

As for AACGGCTGTT, the switch fluorescence ratio came to 1. With ATTCGCGACC, the switch fluorescence ratio was 1.11. For the sequence GCACGTCGTC, the switch fluorescence ratio stood at 1.13. The figure for AACTCCTATT is 1.03; for ACATACAGTA it is 1.26; for CGTAAGCAAT it is 4.95. For CTATCTCGTC, the switch fluorescence ratio came out at 0.981. Next, CAATCACATC: 1.07. Next, AATCATTCAT: 1; TCGTGGGTAG: 1.04; CGTACTCTAT: 1.05. The figure for CAGTTAATC is 1.02; for CGGGCTTATG it is 1.02; for AGGGAATCGA it is 1.02. With TCGACGAAGT, the switch fluorescence ratio is 0.985. CCACATAGGA: the switch fluorescence ratio came to 1.01. For the sequence ATATCACTTT, the switch fluorescence ratio was 1.

Regarding ATCTCGGGC, the switch fluorescence ratio came out at 1. As to ACCCGTTGCT, the switch fluorescence ratio came out at 1.07.

Take ATGAATTCGC: the switch fluorescence ratio was found to be 1.05. Next, CGGCATATC: 2.3; CAACGAGCGG: 0.964; GAGATTGA: 0.995. As to CAGTTTAAAA, the switch fluorescence ratio worked out at 0.974.

Take AGTGGAAAAT: the switch fluorescence ratio came out at 1.01. The figure for GCGTAAAGCA is 0.976; for GTAAGTGATA it is 1.03. Next, GGAGTGGACA: 1.03. Turning to GGACTAAACA, the switch fluorescence ratio stood at 1.04. Next, CATCGTTGTG: 1.01; TGCAAACGTA: 1.09; GAAATGTTCC: 1. Turning to CTTCGGGCTG, the switch fluorescence ratio is 0.995. Next, CCAAGGATCC: 1; GCAGCGGGCT: 0.934; GAATGAGGTG: 1.04. The figure for TAGGTTGCTC is 0.97; for GGGGCGGGCT it is 0.985; for AAGCAGAAGG it is 0.98.

For the sequence GACTCTTGAT, the switch fluorescence ratio was determined as 0.978. The figure for TACCGGAGTC is 1.19; for TCGGTAGGAG it is 1.01. As for CGGTTAACAA, the switch fluorescence ratio is 1.05. Next, TTATGGTAGA: 1.01; CAGTGTTAG: 1.07. The figure for ACAGGGAATG is 1.03; for AGGTCCTTTG it is 1; for GCAAAATGTG it is 1. With GTGGAGGAA, the switch fluorescence ratio came out at 1.02. Next, GAAATCGCTT: 1.07; TCGATACACG: 1.05; AATTAGTAT: 0.977. For AGTATTCTTT, the switch fluorescence ratio stood at 1.18.

Consider CGAAAAGGTT, for which the switch fluorescence ratio worked out at 1.02. The figure for GACCTCTGTT is 0.986.

In the case of CCCAATTTTT, the switch fluorescence ratio amounted to 1.11. Next, TTAAGTTCCG: 1.05. Next, TGGGCCATTA: 0.973. For AGACAGGTGT, the switch fluorescence ratio was 2.35. For ATGGAGCAAA, the switch fluorescence ratio was found to be 3.17. The figure for AGTGTTTTGA is 0.969; for ATCACGTTTC it is 1.07; for ACAATAGTTT it is 1.02.

Take CAGGCCGTTG: the switch fluorescence ratio is 0.972.

With AATCGAGGG, the switch fluorescence ratio is 1.02. For the sequence CGATTTTATA, the switch fluorescence ratio is 1. TCCAGCGCA: the switch fluorescence ratio worked out at 2.26. In the case of TAGTACTATT, the switch fluorescence ratio is 0.977.

With ATGGGTCCCG, the switch fluorescence ratio was 0.999.

AAGGTTGACA: the switch fluorescence ratio came to 0.989. Regarding GGATCCAAAA, the switch fluorescence ratio was found to be 0.989.

In the case of TGAGAGGGG, the switch fluorescence ratio amounted to 0.962. Turning to ATTATAAACG, the switch fluorescence ratio came to 1.04.

In the case of CCACTTCATC, the switch fluorescence ratio worked out at 1.12. Next, CTCGAGTTAC: 1.14; ATTTCAGACC: 1.07; GGGCGGTATC: 1.02.

With ACGCCGTAGG, the switch fluorescence ratio was found to be 0.966. Take TAGTAGCATT: the switch fluorescence ratio came to 1.

Take CGGTCAGTTC: the switch fluorescence ratio amounted to 1.05.

Regarding TGTTCTATGC, the switch fluorescence ratio amounted to 1.01. Next, TGTCGTCGTT: 0.998. As for AATGGATGGT, the switch fluorescence ratio was determined as 0.986.

As to GTCACGCGG, the switch fluorescence ratio came out at 1. As for CTGGTATCTC, the switch fluorescence ratio was found to be 1.04. On to AGTGCTAGTA, for which the switch fluorescence ratio came to 0.95. Next, GCCCCACGTT: 1.01.

For AGAAACTTCA, the switch fluorescence ratio worked out at 1.24. For the sequence AATACTTTCA, the switch fluorescence ratio was 1.05.

Regarding TATCTGTCTG, the switch fluorescence ratio stood at 1.03. In the case of ACCATGAATT, the switch fluorescence ratio came out at 1.03. Next, GTCGTAAGAT: 1.01. In the case of GACTTAAGGG, the switch fluorescence ratio was 1. Next, ATACAATCTC: 1.14; ATCCCTTTCT: 1.02; AGCGGTGCGT: 1.01.

Turning to TTCTAAGCCG, the switch fluorescence ratio is 1.12.

For the sequence ATGATCACGG, the switch fluorescence ratio worked out at 1.04. With TTAGCAGGCC, the switch fluorescence ratio came out at 0.925. Next, GCGTTTATGA: 0.99. As to ACATAATGGC, the switch fluorescence ratio is 1.1. For the sequence GGAGGTGTCC, the switch fluorescence ratio was determined as 1.02. On to ATAGCGTAA, for which the switch fluorescence ratio stood at 1.01. In the case of GCTAATTGAC, the switch fluorescence ratio is 1.04. The figure for CCGGCAGCCG is 0.998; for CGAAATCGAG it is 1.07. Turning to GAACCGGACT, the switch fluorescence ratio came out at 2.12.

With ATCCCGACCC, the switch fluorescence ratio was 1.14. Next, AGTACAGTGT: 1; CCAGAGTATA: 1.22; CGATGCGTTT: 1.04. As for TAGACTAAGA, the switch fluorescence ratio was 1.

Turning to TCAGGTTGGC, the switch fluorescence ratio turned out to be 1.15. Next, GGGACCGTGA: 1.02; AATGGACTGA: 1.05; GATTAACGGA: 1.06. The figure for TGCCGATCGA is 1.05; for TTAGGCGCTA it is 0.983; for TGAAAGAGCA it is 0.969. The figure for GAGTCCGAGA is 1.64.
